Target: rabbit VEGF (rabbit) (UniProt G1T1L9)
Assay: SPR, summary table, column Rabbit VEGF, Kd [M]

B1: IGT-427 (Fc fusion)
heavy: EVQLVQSGAEVKKPGASVKVSCKASGYSFTSYWMNWVRQAPGQGLEWMGMIHPSDSETRLNQKFMDRVTMTRDTSTSTVYMELSSLRSEDTAVYYCARGLYGNSWGQGTLVTVSSASTKGPSVFPLAPSSKSTSGGTAALGCLVKDYFPEPVTVSWNSGALTSGVHTFPAVLQSSGLYSLSSVVTVPSSSLGTQTYICNVNHKPSNTKVDKKV[sequence of human IgG1 Fc with L234A L235A H310A (EU numbers) not given]GGGGSGGGGSGGGGSGGGGSSDTGRPFVEMYSEIPEIIHMTEGRELVIPCRVTSPNITVTLKKFPLDTLIPDGKRIIWDSRKGFIISNATYKEIGLLTCEATVNGHLYKTNYLTHRQTNTIIDVVLSPSHGIELSVGEKLVLNCTARTELNVGIDFNWEYPSSKHQHKKLVNRDLKTQSGSEMKKFLSTLTIDGVTRSDQGLYTCAASSGLMTKKNSTFVRVHEK
light: DIQMTQSPSSLSASVGDRVTITCRASQDIGISLNWYQQEPGKAIKRLIYATSSLDSGVPKRFSGSRSGTEYTLTISSLESEDFADYYCLQYASSPYTFGGGTKLEIKRTVAAPSVFIFPPSDEQLKSGTASVVCLLNNFYPREAKVQWKVDNALQSGNSQESVTEQDSKDSTYSLSSTLTLSKADYEKHKVYACEVTHQGLSSPVTKSFNRGEC
Kd: 1.07 nM

Source: patent US20230287109A1
